Experimental data taken from PubChem BioAssay AID493208 (National Center for Advancing Translational Sciences (NCATS), 2011).
Screen size: about 44,000 compounds; about 340 (0.77%) were called active. About 5% were inconclusive and are not listed. The call rests on the fitted dose curve; in most records, active means well fitted inhibition curve with a large enough effect; inconclusive means small, poorly fitted or top-dose-only effect; inactive means flat fitted curve, though single readings scatter. Some of the results follow.

Test: Acumen qHTS Assay for Inhibitors of the mTORC1 Signaling Pathway in MEF (Tsc2-/-, p53-/-) Cells: Sytravon;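 further: plate controls were DMSO for no effect and rapamycin for full effect; nearly all actives have a fitted effect of over 50% in size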
Settings: phospho-rpS6 immunofluorescence/PI, 24 h; series mostly up to 38.3 µM; activity change, negative = inhibition: at the top concentration
In short: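 Plate MEFs (Tsc2-/-, p53-/-, empty vector) in DMEM/10% FBS; after 24 h add compound, incubate 24 h at 37 degree Celsius; fix in PFA/TX-100, block, stain phospho-rpS6 and 10 uM PI; scan at 488 nm; report % positive cells.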

SMILES	activity change, negative = inhibition
CCC(=O)N1c2ccc(S(=O)(=O)CCC(=O)N3CCN(c4cc(C)ccc4C)CC3)cc2CC1C (configuration not stated)	inactive: -0.484%
O=C(CSc1nc2nccnc2c(=O)n1CCc1c[nH]c2ccccc12)Nc1ccccc1	inactive: 0%
COC(=O)c1c(NC(=O)/C(C#N)=C/c2ccc(OC)cc2)sc2c1CCC2	inactive: 9.12%
O=C(NC1CC(=O)N(c2ccccc2)C1)C(c1ccccc1)c1ccccc1 (configuration not stated)	inactive: -0.487%
Cc1c(CCNC(=O)c2ccc(Br)o2)sc2nc(-c3ccc(Cl)cc3)nn12	inactive: -0.569%
Cc1ccc(C(=O)N2CCCCC2)cc1NC(=O)c1nsc2ccccc12	inactive: -10.4%
COc1ccc(S(=O)(=O)N2CCC(N3CCN(Cc4ccc(F)cc4)C(=O)C3=O)CC2)cc1	inactive: 0.547%
O=C(Nc1ccccc1C(F)(F)F)C1CCN(S(=O)(=O)Cc2ccccc2)CC1	inactive: 8.74%
CCc1ccc(C(=O)c2cn(CC(=O)Nc3cc(OC)ccc3OC)c3nc(C)ccc3c2=O)cc1	inactive: 1.69%
Cc1oc2cc3oc(=O)c(CC(=O)NCc4ccccc4)c(C)c3cc2c1C	inactive: 1.29%
Cc1ccc(-n2c(=O)c3sc4ccccc4c3n(C)c2=O)cc1F	inactive: -12.5%
COc1cccc(NC(=O)c2oc3ccccc3c2NC(=O)c2ccc(F)c(F)c2)c1	inactive: -15.5%
Cc1ccc(C)c(NC(=O)c2ccc3c(c2)CCCN3S(C)(=O)=O)c1	inactive: -2.44%
COCCNC(=O)CCC(=O)NNc1nc2ccccc2c2nc(-c3ccccc3)nn12	inactive: 1.82%
CCOc1ccc(NC(=O)CSc2ncc3c(n2)-c2ccccc2N(C)S3(=O)=O)cc1	inactive: 1.04%
Clc1ccccc1-c1nc(Nc2ccccc2)nc2ccc(Br)cc12	inactive: -4.24%
Cc1ccc(NC(=O)N2CCC(n3c(C)nc4cccnc43)CC2)c(Cl)c1	inactive: 0%
Cc1ccc(NC(=O)c2cc(S(=O)(=O)N3CCOCC3)c(Cl)cc2Cl)cc1	inactive: 9.66%
COc1ccc(CNC(=O)Nc2cn(CC(C)C)c(=O)c3ccccc23)c(OC)c1	inactive: -21.5%
Cc1cc(C)cc(NC(=O)C2CCN(S(=O)(=O)c3cccc4nonc34)CC2)c1	inactive: -6.89%
CCc1ccc(CNC(=O)c2ccc(CSc3nc4ccncc4n3Cc3ccccc3)cc2)cc1	inactive: -9.83%
CCC(Oc1ccccc1)C(=O)Nc1nnc(S(=O)(=O)Nc2ccccc2)s1 (configuration not stated)	inactive: 2.78%
COC(=O)CCc1sc(Nc2ccc(OC)cc2)nc1-c1ccc(OC)cc1	inactive: -3.37%
Cc1ccccc1NC(=O)CC1C(=O)NCCN1C(=O)c1cccc(Cl)c1 (configuration not stated)	inactive: -7.25%
CC(=O)c1ccc(N2CCN(C(=O)NCc3noc4ccc(C)cc34)CC2)cc1	inactive: 2.69%

SMILES	activity change, negative = inhibition
Cc1noc(-c2ccccc2OCC(=O)Nc2cccc([N+](=O)[O-])c2)n1	inactive: -0.696%
CCOC(=O)C1CCCN(S(=O)(=O)c2ccc3[nH]c(=O)ccc3c2)C1 (configuration not stated)	inactive: -24.6%
Cc1ccc(S(=O)(=O)NCc2nc3nc(C)cc(C)n3n2)c(C)c1	inactive: 0.667%
CCN1c2ccccc2-c2nc(SCC(=O)Nc3ccc(C)c(Cl)c3)ncc2S1(=O)=O	inactive: -0.202%
CCOC(=O)c1ccccc1NC(=O)CSc1nc2ncccc2[nH]1	inactive: 1.86%
COc1ccc(-c2nnn3c2nc(N2CCCC(C)C2)c2ccccc23)cc1 (configuration not stated)	inactive: -8.53%
Cc1ccc(C)c(N(C)C(=O)C2CCN(S(=O)(=O)c3cccc4nsnc34)CC2)c1	inactive: -25.9%
CC(=O)c1cc(C(=O)Nc2cccc(C)c2)c2ccccn12	inactive: -3.26%
COc1ccc(N2CCN(C(=O)CCS(=O)(=O)c3cc4c(cc3Cl)NC(=O)CO4)CC2)cc1	inactive: 7.13%
CCOC(=O)c1ccc(NC(=O)CC2C(=O)N(c3ccccc3)C(=O)N2Cc2cccs2)cc1 (configuration not stated)	inactive: 0.352%
Cc1ccc(S(=O)(=O)c2[nH]c(-c3ccccc3)nc2SCC(=O)O)cc1	inactive: -0.85%
COc1ccc(N2CCN(CC(O)COc3ccc(C(C)(C)C)cc3)CC2)cc1 (configuration not stated)	inactive: 2.04%
CCOc1ccc(CNC(=O)c2ccc3nc(Cc4ccc(OC)cc4)oc3c2)cc1OC	inactive: 2.85%
CCN(C(=O)Cc1c(C(=O)O)[nH]c2ccccc12)c1ccc(OC)cc1	inactive: 6.47%
CCc1ccc(CN(C(=O)c2nc(SC)ncc2Cl)C2CCS(=O)(=O)C2)cc1 (configuration not stated)	inactive: -2.89%
CCC(=O)N1c2ccccc2CC1C(=O)N1CCN(c2ccccc2)CC1 (configuration not stated)	inactive: 0%
Cc1ccc(Cl)cc1NC(=O)c1ccc(-c2nc(CSc3ccccc3)c(C)o2)cc1	inactive: -9.32%
CC(C)Cc1nn2c(=O)cc(COC(=O)c3ccc(NC(=O)c4cccs4)cc3)nc2s1	inactive: 22.2%
CC(=O)c1ccc(N2CCN(C(=O)C3CCN(S(=O)(=O)c4cccc5nonc45)CC3)CC2)cc1	inactive: 0.379%
O=S(=O)(NCCc1csc(-c2ccc(F)cc2)n1)c1ccc(Cl)cc1	inactive: -14.8%
O=c1c2c3c(sc2nnn1Cc1ccc(Br)cc1)CCCC3	inactive: 2.48%
CCOc1ccccc1NC(=O)Cn1c(=O)ccc2cc(S(=O)(=O)N3CCC(C)CC3)ccc21	inactive: -0.903%
CCOC(=O)c1ccc(NC(=O)CCc2c(C)nc3c(c(C)nn3C)c2C)cc1	inactive: -0.94%
Cc1ccc(OCCCn2c(C3CC(=O)N(c4cccc(Cl)c4)C3)nc3ccccc32)c(C)c1 (configuration not stated)	inactive: 0.559%
CCOC(=O)C1CCN(C(=O)C2COc3ccccc3C2)CC1 (configuration not stated)	inactive: -3.6%

SMILES	activity change, negative = inhibition
O=C(c1cc2ccccc2oc1=O)N(Cc1cccc(Cl)c1)C1CCS(=O)(=O)C1 (configuration not stated)	inactive: 1.42%
Cc1ccc(CN2CCSc3ccc(C(=O)N4CCN(c5cccc(C)c5C)CC4)cc32)cc1	inactive: -2.03%
O=C(CSc1nccn1Cc1ccc(Cl)cc1)NC1CCCC1	inactive: -7.17%
COc1ccc(-c2cnc(C)o2)cc1S(=O)(=O)Nc1ccc(C)c(F)c1	inactive: 1.92%
COc1cccc(-n2ccnc2SCC(=O)Nc2cccc(C)c2C)c1	inactive: -3.4%
CCc1ccc(NC(=O)Cn2cnc3sc(C)c(S(=O)(=O)N4CCC(C)CC4)c3c2=O)cc1	inactive: -1.89%
CCCC(=O)NCC(c1ccc2c(c1)OCO2)N1CCN(c2ccc(F)cc2)CC1 (configuration not stated)	inactive: -7.29%
COc1ccc(-c2nc3c(C#N)c[nH]n3c2NC2CCCCC2)c(OC)c1	inactive: -10.1%
COc1ccc(-n2ncc(C(=O)NCc3ccccc3)c2C2CCN(C(=O)OC(C)(C)C)CC2)cc1	inactive: -3.86%
Cc1ccc(OCc2nc3ccccc3n2CC(C)C)cc1	inactive: -7.49%
COc1ccc(CCNC(=O)CCn2c(=O)c3cccn3c3ccc(F)cc32)c(OC)c1OC	inactive: -0.265%
CCOc1ccccc1CNC(=O)Nc1cn(CC(C)C)c(=O)c2ccccc12	inactive: -0.0544%
CC(Oc1ccccc1)C(=O)Nc1nc2ccc(S(N)(=O)=O)cc2s1 (configuration not stated)	inactive: 0.816%
Cc1cc2c(cc1S(=O)(=O)NCc1ccc(N(C)C)cc1)OCC(=O)N2	inactive: -0.557%
CCCN(C(=O)c1cc2c(s1)-c1ccccc1SC2)c1ccccc1F	inactive: 1.84%
COc1ccc(N(CC(=O)NC(C)c2ccccc2)S(=O)(=O)c2c(C)noc2C)cc1 (configuration not stated)	inactive: -2.21%
CC1(c2ccc(Cl)cc2)CC(C)(C)N(C(=O)c2ccccc2)c2ccccc21 (configuration not stated)	inactive: -0.763%
Cc1ccc(CN2CCC(CNc3ncnc4onc(-c5ccc(Cl)cc5)c34)CC2)cc1	inactive: 5.03%
CCOC(=O)c1noc2ncnc(N3CCN(c4ccccc4OC)CC3)c12	inactive: 11.9%
CCOC(=O)c1c(C)c(-c2ccccc2)n(CC(=O)Nc2cc(OC)cc(OC)c2)c1C	inactive: -3.92%
COc1cc(C2NC(=O)NC(C)=C2C(=O)Nc2cc(C)cc(C)c2)ccc1O (configuration not stated)	inactive: -7.58%
CC(C)(C)NS(=O)(=O)c1ccc2nc(NC(=O)c3cccnc3)sc2c1	inactive: 0.0901%
COC(=O)CNC(=O)Nc1cc(C(=O)NCc2ccc(C)cc2)ccc1N1CCCC1	inactive: 6.97%
CC(=O)N1c2ccccc2CC1C(=O)N1CCN(c2ccc(F)cc2)CC1 (configuration not stated)	inactive: 14%
COc1ccc(C)cc1NC(=O)c1oc2ccc(S(=O)(=O)N(C)C3CCCCC3)cc2c1C	inactive: 6.03%

SMILES	activity change, negative = inhibition
COC(=O)C1CCN(S(=O)(=O)c2cc3c4c(c2)C(C)C(=O)N4CCC3)CC1 (configuration not stated)	inactive: -13.3%
CC(C)(C)c1cc(C(C)(C)C)c2oc(=O)c(-c3nc4ccccc4[nH]3)cc2c1	inactive: 5.26%
O=C(CSc1nc2ccccc2c2nc(-c3ccccc3)nn12)Nc1ccc(Br)cc1	inactive: 1.17%
CCc1cc(C(=O)Nc2c(C)nn(Cc3ccc(C)cc3)c2C)no1	inactive: -14.7%
Cc1ccc(Cn2c(SCC(=O)NCc3ccc(Cl)cc3)nc3ccsc3c2=O)cc1	inactive: 3.46%
Cc1ccc(NC(=O)CN2CCCN(Cc3cc(C)ccc3C)S2(=O)=O)c(Cl)c1	inactive: 0%
COc1cccc(N2CCN(C(=O)C3CCC(CNS(=O)(=O)c4ccc(Br)s4)CC3)CC2)c1 (configuration not stated)	inactive: -6.03%
CCS(=O)(=O)N1CC(=O)N(c2ccccc2C)C(C)(C(=O)NC2CCCCC2)C1 (configuration not stated)	inactive: 0.643%
COCCCNC(=O)Cn1c(=O)n(-c2ccc(C)cc2)c(=O)c2c1c1cc(C)ccc1n2C	inactive: 1.22%
Cc1ccc(Cl)cc1N1CCN(C(=O)c2cn(C3CCCCC3)c(=O)c3c2c2ccccc2n3C)CC1	inactive: -21.9%
COc1ccc(NC(=O)CSc2nnc(-c3ccc(C)cc3)o2)cc1	inactive: -4.39%
CN(C)c1ccc(C(CNC(=O)COc2ccc(Cl)cc2)N2CCOCC2)cc1 (configuration not stated)	inactive: 18.6%
COc1cccc(-c2nc3c(c(SCc4ccccc4)n2)Cc2c(CO)cnc(C)c2O3)c1	inactive: -7.8%
NC(=O)c1cc(S(=O)(=O)NCc2ccccc2)cs1	inactive: -6.37%
CN(C(=O)CCNC(=O)Cn1cnc2ccccc2c1=O)c1ccccc1F	inactive: 3.22%
CCCn1c(=O)n(-c2ccccc2)c(=O)c2sc3ccccc3c21	inactive: 2.34%
CCOc1ccc(CCNC(=O)CN2CCN(Cc3ccc(F)cc3Cl)C2=O)cc1OCC	inactive: 1.06%
C=CCc1c(C)nc2nc(SCC(=O)Nc3ccccc3CC)nn2c1C	inactive: 9.96%
CCCOc1ccccc1C(=O)N1CCC(c2nc3ccccc3s2)CC1	inactive: -2.04%
CCOC(=O)CSc1nc2cc3c(cc2c(=O)n1CCCC(=O)NCc1ccc2c(c1)OCO2)OCO3	inactive: 0.167%
COC(=O)CN1C(=O)CSc2ccc(S(=O)(=O)Nc3ccc(Cl)cc3C)cc21	inactive: 0.0211%
Cc1ccc2ccc(C(Nc3ccccn3)c3ccccc3)c(O)c2n1 (configuration not stated)	inactive: -7.2%
